US10010614B2, “Derivatives of GLP-1 like peptides, and uses thereof” (Novo Nordisk A/S, priority 2013, dated 2018)
pEC50, pIC50: −log10 of the molar value. Where two headings read alike, the source gives them in different places. At least one compound was matched to its structure with a doubt left. Numbered stars: 1 amine (or outer) side, 2 acyl side, 3 side chain; on linkers, the order of the positions; unused ones are H or OH. Square brackets hold non-standard residues; d marks the D form. Side chains are listed from the residue outwards. Peptide text beside a SMILES is read from it. * marks the point of attachment. C20 diacid = O=C(O)CCCCCCCCCCCCCCCCCCC(=O)*; C19 diacid = O=C(O)CCCCCCCCCCCCCCCCCC(=O)*; γGlu = O=C(O)[C@H](CCC(=O)[*:2])N[*:1]; Desaminohistidyl = O=C(CCc1c[nH]cn1)*; Trx = NC[C@H]1CC[C@H](C(=O)O)CC1; AEEA = NCCOCCOCC(=O)O; Aib = CC(C)(N)C(=O)O

Legend:
human GLP-1 receptor [1] = target: T1, human GLP-1 receptor (Homo sapiens, UniProt P43220); assay: In vitro potency, CRE luciferase reporter gene assay in BHK cells expressing the human GLP-1 receptor; assay type: cell-based; details: whole cell reporter gene assay, 3 h incubation, no HSA, averages of at least two replicates
T1 construct: expressed in transfected cells; host or cells: membranes prepared from BHK cells (parent line BHKTS13), clone FCW467-12A
T1 sequence (P43220 24-463): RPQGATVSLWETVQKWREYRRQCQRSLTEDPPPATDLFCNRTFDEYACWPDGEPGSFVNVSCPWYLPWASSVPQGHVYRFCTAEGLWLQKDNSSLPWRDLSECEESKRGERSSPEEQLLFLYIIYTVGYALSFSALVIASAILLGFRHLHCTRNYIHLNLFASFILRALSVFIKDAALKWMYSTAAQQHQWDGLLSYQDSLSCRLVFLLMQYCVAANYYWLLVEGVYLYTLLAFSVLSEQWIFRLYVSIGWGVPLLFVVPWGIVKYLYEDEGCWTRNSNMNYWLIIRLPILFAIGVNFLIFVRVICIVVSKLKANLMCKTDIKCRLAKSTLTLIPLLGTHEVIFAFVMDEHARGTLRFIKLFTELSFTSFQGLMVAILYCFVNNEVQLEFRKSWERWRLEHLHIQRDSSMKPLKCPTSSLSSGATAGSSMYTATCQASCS
Protocol: The purpose of this example is to test the activity, or potency, of the GLP-1 derivatives in vitro. The in vitro potency is the measure of human GLP-1 receptor activation in a whole cell assay.
Semaglutide was included for comparison.
In vitro potency was determined by measuring the response of the human GLP-1 receptor in a reporter gene assay. The assay was performed in a stably transfected BHK cell line that expresses the human GLP-1 receptor and contains the DNA for the cAMP response element (CRE) coupled to a promoter and the gene for firefly luciferase (CRE luciferase). When the human GLP-1 receptor is activated it results in the production of cAMP, which in turn results in the luciferase protein being expressed. When assay incubation is completed the luciferase substrate (luciferin) is added and the enzyme converts luciferin to oxyluciferin to produce bioluminescence. The luminescence is measured as the readout for the assay.
The cells used in this assay (clone FCW467-12A/KZ10-1) were BHK cells with BHKTS13 as a parent cell line. The cells were derived from a clone (FCW467-12A) that expresses the human GLP-1 receptor and were established by further transfection with CRE luciferase to obtain the current clone.
The cells were cultured at 5% CO2 in Cell Culture Medium. They were aliquoted and stored in liquid nitrogen. Before each assay an aliquot is taken up and washed twice in PBS before being suspended at the desired concentration in the assay specific buffer. For 96-well plates the suspension was made to give a final concentration of 5×10^3 cells/well.
The following chemicals were used in the assay: Pluronic F-68 (10%) (Gibco 2404), human serum albumin (HSA) (Sigma A9511), ovalbumin (Sigma A5503), DMEM w/o phenol red (Gibco 11880-028), 1 M Hepes (Gibco 15630), Glutamax 100× (Gibco 35050) and steadylite plus (PerkinElmer 6016757).
Cell Culture Medium consisted of DMEM medium with 10% FBS (Fetal Bovine Serum; Invitrogen 16140-071), 1 mg/ml G418 (Invitrogen 15140-122), 240 nM MTX (methotrexate; Sigma M9929) and 1% pen/strep (penicillin/streptomycin; Invitrogen 15140-122).
Assay Medium consisted of DMEM w/o phenol red, 10 mM Hepes and 1× Glutamax. The Assay Buffer consisted of 2% ovalbumin and 0.2% Pluronic F-68 in Assay Medium.
1) Cell stocks were thawed in a 37° C. water bath.
2) Cells were washed three times in PBS.
3) The cells were counted and adjusted to 5×10^3 cells/50 μl (1×10^5 cells/ml) in Assay Medium. A 50 μl aliquot of cells was transferred to each well in the assay plate.
4) Stocks of the test compounds and reference compounds were diluted to a concentration of 0.2 μM in Assay Buffer. Compounds were diluted 10-fold to give the following concentrations: 2×10^−7 M, […]; 2×10^−9 M, 2×10^−10 M, 2×10^−11 M, 2×10^−12 M, 2×10^−13 M, and 2×10^−14 M. 5) A 50 μl aliquot of compound or blank was transferred from the dilution plate to the assay plate. Compounds were tested at the following final concentrations: 1×10^−7 M, 1×10^−8 M; 1×10^−9 M, 1×10^−10 M, 1×10^−11 M, 1×10^−12 M, 1×10^−13 M, and 1×10^−14 M. 6) The assay plate was incubated for 3 h in a 5% CO2 incubator at 37° C. 7) The assay plate was removed from the incubator and allowed to stand at room temperature for 15 min. 8) A 100 μl aliquot of steadylite plus reagent was added to each well of the assay plate (reagent was light sensitive). 9) Each assay plate was covered with aluminum foil to protect it from light and shaken for 30 min at room temperature. 10) Each assay plate was read in a Packard TopCount NXT instrument. Calculations and Results
The data from the TopCount instrument were transferred to GraphPad Prism software. The software performs a non-linear regression (log(agonist) vs response).
A minimum of two replicates was measured for each sample. The reported values are averages of the replicates.

human GLP-1 receptor [2] = target: T1, human GLP-1 receptor; assay: GLP-1 receptor binding, competitive binding assay (125I-GLP-1, SPA) on isolated membranes
[3] = read-out: High HSA IC50, high serum albumin (2.0% HSA final assay concentration)
[4] = read-out: Low HSA IC50, low serum albumin (max. 0.001% final assay concentration)

| Compound | pEC50 (human GLP-1 receptor [1]) | pIC50 (human GLP-1 receptor [2]; [3]) | pIC50 (human GLP-1 receptor [2]; [4]) |
| --- | --- | --- | --- |
| CC[C@H](C)[C@H](NC(=O)[C@H](Cc1ccccc1)NC(=O)[C@H](CCC(=O)O)NC(=O)[C@H](CCCNC(=N)N)NC(=O)[C@H](C)NC(=O)[C@H](C)NC(=O)[C@H](CCC(N)=O)NC(=O)[C@H](CCC(=O)O)NC(=O)[C@H](CCC(=O)O)NC(=O)[C@H](CC(C)C)NC(=O)[C@H](Cc1ccc(O)cc1)NC(=O)[C@H](CO)NC(=O)[C@H](CO)NC(=O)[C@@H](NC(=O)[C@H](CC(=O)O)NC(=O)[C@H](CO)NC(=O)[C@@H](NC(=O)[C@H](Cc1ccccc1)NC(=O)[C@@H](NC(=O)CNC(=O)[C@H](CCC(=O)O)NC(=O)C(C)(C)NC(=O)[C@@H](N)Cc1c[nH]cn1)[C@@H](C)O)[C@@H](C)O)C(C)C)C(=O)N[C@@H](C)C(=O)N[C@@H](Cc1c[nH]c2ccccc12)C(=O)N[C@@H](CC(C)C)C(=O)N[C@H](C(=O)N[C@@H](CCCNC(=N)N)C(=O)NCC(=O)N[C@@H](CCCNC(=N)N)C(=O)NCC(=O)N[C@@H](CCCCNC(=O)COCCOCCNC(=O)COCCOCCNC(=O)CC[C@H](NC(=O)[C@H]1CC[C@H](CNC(=O)CCCCCCCCCCCCCCCCCCC(=O)O)CC1)C(=O)O)C(=O)N[C@@H](CO)C(=O)N1CCC[C@H]1C(=O)N[C@@H](CCC(=O)O)C(=O)N[C@@H](CCCCNC(=O)COCCOCCNC(=O)COCCOCCNC(=O)CC[C@H](NC(=O)[C@H]1CC[C@H](CNC(=O)CCCCCCCCCCCCCCCCCCC(=O)O)CC1)C(=O)O)C(=O)O)C(C)C [Example 11] (H-H[Aib]EGTFTSDVSSYLEEQAAREFIAWLVRGRGK([AEEA-AEEA-γGlu-Trx-C20 diacid])SPEK([AEEA-AEEA-γGlu-Trx-C20 diacid])-OH) | 10.57 | 6.94 | 8.82 |
| CC[C@H](C)[C@H](NC(=O)[C@H](Cc1ccccc1)NC(=O)[C@H](CCC(=O)O)NC(=O)[C@H](CCCNC(=N)N)NC(=O)[C@H](C)NC(=O)[C@H](C)NC(=O)[C@H](CCC(N)=O)NC(=O)[C@H](CCC(=O)O)NC(=O)[C@H](CCC(=O)O)NC(=O)[C@H](CC(C)C)NC(=O)[C@H](Cc1ccc(O)cc1)NC(=O)[C@H](CO)NC(=O)[C@H](CO)NC(=O)[C@@H](NC(=O)[C@H](CC(=O)O)NC(=O)[C@H](CO)NC(=O)[C@@H](NC(=O)[C@H](Cc1ccccc1)NC(=O)[C@@H](NC(=O)CNC(=O)[C@H](CCC(=O)O)NC(=O)C(C)(C)NC(=O)[C@@H](N)Cc1c[nH]cn1)[C@@H](C)O)[C@@H](C)O)C(C)C)C(=O)N[C@@H](C)C(=O)N[C@@H](Cc1c[nH]c2ccccc12)C(=O)N[C@@H](CC(C)C)C(=O)N[C@H](C(=O)N[C@@H](CCCNC(=N)N)C(=O)NCC(=O)N[C@@H](CCCNC(=N)N)C(=O)NCC(=O)N[C@@H](CCCCNC(=O)COCCOCCNC(=O)COCCOCCNC(=O)COCCOCCNC(=O)COCCOCCNC(=O)CC[C@H](NC(=O)[C@H]1CC[C@H](CNC(=O)CCCCCCCCCCCCCCCCCCC(=O)O)CC1)C(=O)O)C(=O)NCC(=O)NCC(=O)N[C@@H](CO)C(=O)N[C@@H](CCCCNC(=O)COCCOCCNC(=O)COCCOCCNC(=O)COCCOCCNC(=O)COCCOCCNC(=O)CC[C@H](NC(=O)[C@H]1CC[C@H](CNC(=O)CCCCCCCCCCCCCCCCCCC(=O)O)CC1)C(=O)O)C(=O)O)C(C)C [Example 17] (H-H[Aib]EGTFTSDVSSYLEEQAAREFIAWLVRGRGK([AEEA-AEEA-AEEA-AEEA-γGlu-Trx-C20 diacid])GGSK([AEEA-AEEA-AEEA-AEEA-γGlu-Trx-C20 diacid])-OH) | 10.92 | 7.00 | 8.74 |
| CC[C@H](C)[C@H](NC(=O)[C@H](Cc1ccccc1)NC(=O)[C@H](CCC(=O)O)NC(=O)[C@H](CCCNC(=N)N)NC(=O)[C@H](C)NC(=O)[C@H](C)NC(=O)[C@H](CCC(N)=O)NC(=O)[C@H](CCC(=O)O)NC(=O)[C@H](CCC(=O)O)NC(=O)[C@H](CC(C)C)NC(=O)[C@H](Cc1ccc(O)cc1)NC(=O)[C@H](CO)NC(=O)[C@H](CO)NC(=O)[C@@H](NC(=O)[C@H](CC(=O)O)NC(=O)[C@H](CO)NC(=O)[C@@H](NC(=O)[C@H](Cc1ccccc1)NC(=O)[C@@H](NC(=O)CNC(=O)[C@H](CCC(=O)O)NC(=O)C(C)(C)NC(=O)CCc1cnc[nH]1)[C@@H](C)O)[C@@H](C)O)C(C)C)C(=O)N[C@@H](C)C(=O)N[C@@H](Cc1c[nH]c2ccccc12)C(=O)N[C@@H](CC(C)C)C(=O)N[C@H](C(=O)N[C@@H](CCCNC(=N)N)C(=O)NCC(=O)N[C@@H](CCCNC(=N)N)C(=O)NCC(=O)N[C@@H](CCCCNC(=O)COCCOCCNC(=O)COCCOCCNC(=O)COCCOCCNC(=O)COCCOCCNC(=O)CC[C@H](NC(=O)[C@H]1CC[C@H](CNC(=O)CCCCCCCCCCCCCCCCCCC(=O)O)CC1)C(=O)O)C(=O)NCC(=O)NCC(=O)N[C@@H](CO)C(=O)N[C@@H](CCCCNC(=O)COCCOCCNC(=O)COCCOCCNC(=O)COCCOCCNC(=O)COCCOCCNC(=O)CC[C@H](NC(=O)[C@H]1CC[C@H](CNC(=O)CCCCCCCCCCCCCCCCCCC(=O)O)CC1)C(=O)O)C(=O)O)C(C)C [Example 18] (Desaminohistidyl-[Aib]EGTFTSDVSSYLEEQAAREFIAWLVRGRGK([AEEA-AEEA-AEEA-AEEA-γGlu-Trx-C20 diacid])GGSK([AEEA-AEEA-AEEA-AEEA-γGlu-Trx-C20 diacid])-OH) | 10.89 | 6.66 | 8.64 |
| CC[C@H](C)[C@H](NC(=O)[C@H](Cc1ccccc1)NC(=O)[C@H](CCC(=O)O)NC(=O)[C@H](CCCNC(=N)N)NC(=O)[C@H](C)NC(=O)[C@H](C)NC(=O)[C@H](CCC(N)=O)NC(=O)[C@H](CCC(=O)O)NC(=O)[C@H](CCC(=O)O)NC(=O)[C@H](CC(C)C)NC(=O)[C@H](Cc1ccc(O)cc1)NC(=O)[C@H](CO)NC(=O)[C@H](CO)NC(=O)[C@@H](NC(=O)[C@H](CC(=O)O)NC(=O)[C@H](CO)NC(=O)[C@@H](NC(=O)[C@H](Cc1ccccc1)NC(=O)[C@@H](NC(=O)CNC(=O)[C@H](CCC(=O)O)NC(=O)C(C)(C)NC(=O)[C@@H](N)Cc1c[nH]cn1)[C@@H](C)O)[C@@H](C)O)C(C)C)C(=O)N[C@@H](C)C(=O)N[C@@H](Cc1c[nH]c2ccccc12)C(=O)N[C@@H](CC(C)C)C(=O)N[C@H](C(=O)N[C@@H](CCCNC(=N)N)C(=O)NCC(=O)N[C@@H](CCCNC(=N)N)C(=O)NCC(=O)N[C@@H](CCCCNC(=O)COCCOCCNC(=O)COCCOCCNC(=O)CC[C@H](NC(=O)[C@H]1CC[C@H](CNC(=O)CCCCCCCCCCCCCCCCCC(=O)O)CC1)C(=O)O)C(=O)NCC(=O)NCC(=O)N[C@@H](CO)C(=O)N[C@@H](CCCCNC(=O)COCCOCCNC(=O)COCCOCCNC(=O)CC[C@H](NC(=O)[C@H]1CC[C@H](CNC(=O)CCCCCCCCCCCCCCCCCC(=O)O)CC1)C(=O)O)C(=O)O)C(C)C [Example 26] (H-H[Aib]EGTFTSDVSSYLEEQAAREFIAWLVRGRGK([AEEA-AEEA-γGlu-Trx-C19 diacid])GGSK([AEEA-AEEA-γGlu-Trx-C19 diacid])-OH) | 10.89 | 6.69 | 9.06 |
